Laboratory results reported in ChEMBL document CHEMBL3525900, “Pharmacokinetics, distribution, and metabolism of [14C]sunitinib in rats, monkeys, and humans” (Drug Metab Dispos, 2012).
This continues a long series; more values of the same kind are listed elsewhere.

What was measured:
Set-up in all cases: dose 20 mg/kg, dosed compound name [14C]Sunitinib
Conditions in all cases: in vivo, po
[1] = Drug concentration in male albino rat lymph node assessed as radioactivity per gram of tissue at 20 mg/kg administered as single dose via gastric gavage measured after 24 hrs by autoradiographic analysis; format: ADME, organism-based
[2] = Drug concentration in male Lister Hooded pigmented rat bladder assessed as radioactivity per gram of tissue at 20 mg/kg administered as single dose via gastric gavage measured after 24 hrs by autoradiographic analysis; format: ADME, organism-based, Urinary bladder
[3] = Drug concentration in male Lister Hooded pigmented rat bone marrow assessed as radioactivity per gram of tissue at 20 mg/kg administered as single dose via gastric gavage measured after 24 hrs by autoradiographic analysis; format: ADME, organism-based
[4] = Drug concentration in male Lister Hooded pigmented rat brown fat assessed as radioactivity per gram of tissue at 20 mg/kg administered as single dose via gastric gavage measured after 24 hrs by autoradiographic analysis; format: ADME, organism-based, Brown adipose tissue
[5] = Drug concentration in female albino rat pituitary gland assessed as radioactivity per gram of tissue at 20 mg/kg administered as single dose via gastric gavage measured after 3 hrs by autoradiographic analysis; format: ADME, organism-based
[6] = Drug concentration in female albino rat preputial gland assessed as radioactivity per gram of tissue at 20 mg/kg administered as single dose via gastric gavage measured after 3 hrs by autoradiographic analysis; format: ADME, organism-based
[7] = Drug concentration in female albino rat lachrymal gland assessed as radioactivity per gram of tissue at 20 mg/kg administered as single dose via gastric gavage measured after 3 hrs by autoradiographic analysis; format: ADME, organism-based
[8] = Drug concentration in male Lister Hooded pigmented rat thyroid gland assessed as radioactivity per gram of tissue at 20 mg/kg administered as single dose via gastric gavage measured after 24 hrs by autoradiographic analysis; format: ADME, organism-based
[9] = Drug concentration in male Lister Hooded pigmented rat preputial gland assessed as radioactivity per gram of tissue at 20 mg/kg administered as single dose via gastric gavage measured after 24 hrs by autoradiographic analysis; format: ADME, organism-based
[10] = Drug concentration in male albino rat bone marrow assessed as radioactivity per gram of tissue at 20 mg/kg administered as single dose via gastric gavage measured after 6 hrs by autoradiographic analysis; format: ADME, organism-based
[11] = Drug concentration in male albino rat brown fat assessed as radioactivity per gram of tissue at 20 mg/kg administered as single dose via gastric gavage measured after 6 hrs by autoradiographic analysis; format: ADME, organism-based, Brown adipose tissue
[12] = Drug concentration in male albino rat salivary gland assessed as radioactivity per gram of tissue at 20 mg/kg administered as single dose via gastric gavage measured after 6 hrs by autoradiographic analysis; format: ADME, organism-based
[13] = Drug concentration in male albino rat pituitary gland assessed as radioactivity per gram of tissue at 20 mg/kg administered as single dose via gastric gavage measured after 3 hrs by autoradiographic analysis; format: ADME, organism-based
[14] = Drug concentration in male albino rat preputial gland assessed as radioactivity per gram of tissue at 20 mg/kg administered as single dose via gastric gavage measured after 3 hrs by autoradiographic analysis; format: ADME, organism-based
[15] = Drug concentration in male Lister Hooded pigmented rat lymph node assessed as radioactivity per gram of tissue at 20 mg/kg administered as single dose via gastric gavage measured after 168 hrs by autoradiographic analysis; format: ADME, organism-based
[16] = Drug concentration in male Lister Hooded pigmented rat salivary gland assessed as radioactivity per gram of tissue at 20 mg/kg administered as single dose via gastric gavage measured after 168 hrs by autoradiographic analysis; format: ADME, organism-based
[17] = Drug concentration in female albino rat uterus assessed as radioactivity per gram of tissue at 20 mg/kg administered as single dose via gastric gavage measured after 3 hrs by autoradiographic analysis; format: ADME, organism-based
[18] = Drug concentration in female albino rat brown fat assessed as radioactivity per gram of tissue at 20 mg/kg administered as single dose via gastric gavage measured after 6 hrs by autoradiographic analysis; format: ADME, organism-based, Brown adipose tissue
[19] = Drug concentration in female albino rat lachrymal gland assessed as radioactivity per gram of tissue at 20 mg/kg administered as single dose via gastric gavage measured after 6 hrs by autoradiographic analysis; format: ADME, organism-based
[20] = Drug concentration in male Lister Hooded pigmented rat testis assessed as radioactivity per gram of tissue at 20 mg/kg administered as single dose via gastric gavage measured after 168 hrs by autoradiographic analysis; format: ADME, organism-based
[21] = Drug concentration in male Lister Hooded pigmented rat thyroid gland assessed as radioactivity per gram of tissue at 20 mg/kg administered as single dose via gastric gavage measured after 168 hrs by autoradiographic analysis; format: ADME, organism-based
[22] = Drug concentration in male Lister Hooded pigmented rat uveal tract assessed as radioactivity per gram of tissue at 20 mg/kg administered as single dose via gastric gavage measured after 168 hrs by autoradiographic analysis; format: ADME, organism-based
[23] = Drug concentration in male Lister Hooded pigmented rat testis assessed as radioactivity per gram of tissue at 20 mg/kg administered as single dose via gastric gavage measured after 336 hrs by autoradiographic analysis; format: ADME, organism-based
[24] = Drug concentration in male Lister Hooded pigmented rat uveal tract assessed as radioactivity per gram of tissue at 20 mg/kg administered as single dose via gastric gavage measured after 336 hrs by autoradiographic analysis; format: ADME, organism-based
[25] = Drug concentration in male Lister Hooded pigmented rat eye assessed as radioactivity per gram of tissue at 20 mg/kg administered as single dose via gastric gavage measured after 168 hrs by autoradiographic analysis; format: ADME, organism-based
[26] = Drug concentration in female albino rat uveal tract assessed as radioactivity per gram of tissue at 20 mg/kg administered as single dose via gastric gavage measured after 72 hrs by autoradiographic analysis; format: ADME, organism-based
[27] = Drug concentration in male albino rat pituitary gland assessed as radioactivity per gram of tissue at 20 mg/kg administered as single dose via gastric gavage measured after 24 hrs by autoradiographic analysis; format: ADME, organism-based
[28] = Drug concentration in male albino rat lachrymal gland assessed as radioactivity per gram of tissue at 20 mg/kg administered as single dose via gastric gavage measured after 72 hrs by autoradiographic analysis; format: ADME, organism-based
[29] = Drug concentration in male albino rat salivary gland assessed as radioactivity per gram of tissue at 20 mg/kg administered as single dose via gastric gavage measured after 72 hrs by autoradiographic analysis; format: ADME, organism-based
[30] = Drug concentration in female albino rat pituitary gland assessed as radioactivity per gram of tissue at 20 mg/kg administered as single dose via gastric gavage measured after 24 hrs by autoradiographic analysis; format: ADME, organism-based
[31] = Drug concentration in female albino rat thyroid gland assessed as radioactivity per gram of tissue at 20 mg/kg administered as single dose via gastric gavage measured after 24 hrs by autoradiographic analysis; format: ADME, organism-based
[32] = Drug concentration in female albino rat eye assessed as radioactivity per gram of tissue at 20 mg/kg administered as single dose via gastric gavage measured after 72 hrs by autoradiographic analysis; format: ADME, organism-based
[33] = Drug concentration in male albino rat brown fat assessed as radioactivity per gram of tissue at 20 mg/kg administered as single dose via gastric gavage measured after 24 hrs by autoradiographic analysis; format: ADME, organism-based, Brown adipose tissue
[34] = Drug concentration in female Lister Hooded pigmented rat uterus assessed as radioactivity per gram of tissue at 20 mg/kg administered as single dose via gastric gavage measured after 24 hrs by autoradiographic analysis; format: ADME, organism-based
[35] = Drug concentration in female Lister Hooded pigmented rat eye assessed as radioactivity per gram of tissue at 20 mg/kg administered as single dose via gastric gavage measured after 72 hrs by autoradiographic analysis; format: ADME, organism-based
[36] = Drug concentration in female Lister Hooded pigmented rat uveal tract assessed as radioactivity per gram of tissue at 20 mg/kg administered as single dose via gastric gavage measured after 72 hrs by autoradiographic analysis; format: ADME, organism-based

## CCN(CC)CCNC(=O)c1c(C)[nH]c(/[14CH]=C2\C(=O)Nc3ccc(F)cc32)c1C.O=C(O)C[C@H](O)C(=O)O
[1]
  Radiolabel recovery: 0.9 ugequiv
[2]
  Radiolabel recovery: 0.48 ugequiv
[3]
  Radiolabel recovery: 0.55 ugequiv
[4]
  Radiolabel recovery: 0.85 ugequiv
[5]
  Radiolabel recovery: 21.58 ugequiv
[6]
  Radiolabel recovery: 17.74 ugequiv
[7]
  Radiolabel recovery: 24.12 ugequiv
[8]
  Radiolabel recovery: 0.72 ugequiv
[9]
  Radiolabel recovery: 7.53 ugequiv
[10]
  Radiolabel recovery: 6.6 ugequiv
[11]
  Radiolabel recovery: 7.57 ugequiv
[12]
  Radiolabel recovery: 12.14 ugequiv
[13]
  Radiolabel recovery: 24.34 ugequiv
[14]
  Radiolabel recovery: 12.6 ugequiv
[15]
  Radiolabel recovery: 0.06 ugequiv
[16]
  Radiolabel recovery: 0.06 ugequiv
[17]
  Radiolabel recovery: 6.84 ugequiv
[18]
  Radiolabel recovery: 9.42 ugequiv
[19]
  Radiolabel recovery: 19.88 ugequiv
[20]
  Radiolabel recovery: 0.91 ugequiv
[21]
  Radiolabel recovery: 0.06 ugequiv
[22]
  Radiolabel recovery: 111.78 ugequiv
[23]
  Radiolabel recovery: 0.17 ugequiv
[24]
  Radiolabel recovery: 100.17 ugequiv
[25]
  Radiolabel recovery: 28.52 ugequiv
[26]
  Radiolabel recovery: 0.45 ugequiv
[27]
  Radiolabel recovery: 7.9 ugequiv
[28]
  Radiolabel recovery: 0.41 ugequiv
[29]
  Radiolabel recovery: 0.14 ugequiv
[30]
  Radiolabel recovery: 6.49 ugequiv
[31]
  Radiolabel recovery: 2.65 ugequiv
[32]
  Radiolabel recovery: 0.11 ugequiv
[33]
  Radiolabel recovery: 0.46 ugequiv
[34]
  Radiolabel recovery: 0.44 ugequiv
[35]
  Radiolabel recovery: 40 ugequiv
[36]
  Radiolabel recovery: 168.12 ugequiv
